Reference: the supplement of paper PMC8728848
The other results are listed elsewhere or left out.

Columns and labels:
Experiment in all cases: glycan array binding signal (z-score within array); higher = stronger binding
Conditions in all cases: glycan notation: IUPAC condensed, linker removed; mutation: E41A
[1] = target: Neu5Ac(a2-6)GlcNAc(b1-4)GlcNAc(b1-4)GlcNAc
Outline: (§1)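 Glycan array binding is given as a within-array Z-score, which can be read as non-binding when negative. The arrays, 3228 of them, came from the Consortium for Functional Glycomics database and were retained only where the protein sequence was available. Z-scores were averaged across arrays of the same protein sequence at different concentrations or buffers and across linkers.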

[2] = target: Neu5Ac(a2-8)Neu5Ac
Outline: as §1

[3] = target: Neu5Ac(a2-8)Neu5Ac(a2-3)Gal(b1-3)GalNAc(b1-4)[Neu5Ac(a2-3)]Gal(b1-4)Glc
Outline: as §1

[4] = target: Neu5Ac(a2-8)Neu5Ac(a2-3)Gal(b1-3)GalNAc(b1-4)[Neu5Ac(a2-8)Neu5Ac(a2-3)]Gal(b1-4)Glc
Outline: as §1

[5] = target: Neu5Ac(a2-8)Neu5Ac(a2-3)Gal(b1-4)Glc
Outline: as §1

[6] = target: Neu5Ac(a2-8)Neu5Ac(a2-3)Gal(b1-4)GlcNAc
Outline: as §1

[7] = target: Neu5Ac(a2-8)Neu5Ac(a2-3)[Gal(b1-3)GalNAc(b1-4)]Gal(b1-4)Glc
Outline: as §1

[8] = target: Neu5Ac(a2-8)Neu5Ac(a2-3)[GalNAc(b1-4)]Gal(b1-4)Glc
Outline: as §1

[9] = target: Neu5Ac(a2-8)Neu5Ac(a2-8)Neu5Ac
Outline: as §1

[10] = target: Neu5Ac(a2-8)Neu5Ac(a2-8)Neu5Ac(a2-3)Gal(b1-4)Glc
Outline: as §1

[11] = target: Neu5Ac(a2-8)Neu5Ac(a2-8)Neu5Ac(a2-3)[Gal(b1-3)GalNAc(b1-4)]Gal(b1-4)Glc
Outline: as §1

[12] = target: Neu5Ac(a2-8)Neu5Ac(a2-8)Neu5Ac(a2-3)[GalNAc(b1-4)]Gal(b1-4)Glc
Outline: as §1

[13] = target: Neu5Ac(a2-8)Neu5Ac(a2-8)Neu5Ac(a2-8)Neu5Ac(a2-3)[GalNAc(b1-4)]Gal(b1-4)Glc
Outline: as §1

[14] = target: Neu5Ac(a2-8)Neu5Gc(a2-3)Gal(b1-4)GlcNAc
Outline: as §1

[15] = target: Neu5Ac(b2-6)Gal(b1-4)GlcNAc
Outline: as §1

[16] = target: Neu5Ac(b2-6)GalNAc
Outline: as §1

[17] = target: Neu5Ac9Ac(a2-3)Gal(b1-3)GlcNAc
Outline: as §1

[18] = target: Neu5Ac9Ac(a2-3)Gal(b1-4)GlcNAc
Outline: as §1

[19] = target: Neu5Ac9Ac(a2-6)Gal(b1-4)GlcNAc
Outline: as §1

[20] = target: Neu5Gc(a2-3)Gal(b1-3)GlcNAc
Outline: as §1

[21] = target: Neu5Gc(a2-3)Gal(b1-3)[Fuc(a1-4)]GlcNAc
Outline: as §1

[22] = target: Neu5Gc(a2-3)Gal(b1-4)Glc
Outline: as §1

[23] = target: Neu5Gc(a2-3)Gal(b1-4)GlcNAc
Outline: as §1

[24] = target: Neu5Gc(a2-3)Gal(b1-4)GlcNAc(b1-3)Gal(b1-4)GlcNAc(b1-2)Man(a1-3)[Neu5Gc(a2-3)Gal(b1-4)GlcNAc(b1-3)Gal(b1-4)GlcNAc(b1-2)Man(a1-6)]Man(b1-4)GlcNAc(b1-4)GlcNAc
Outline: as §1

[25] = target: Neu5Gc(a2-3)Gal(b1-4)[Fuc(a1-3)]GlcNAc
Outline: as §1

[26] = target: Neu5Gc(a2-6)Gal(b1-4)GlcNAc
Outline: as §1

[27] = target: Neu5Gc(a2-6)GalNAc
Outline: as §1

[28] = target: Neu5Gc(a2-8)Neu5Ac(a2-3)Gal(b1-4)GlcNAc
Outline: as §1

[29] = target: Neu5Gc(a2-8)Neu5Gc(a2-3)Gal(b1-4)GlcNAc
Outline: as §1

[30] = target: Neu5Gc(a2-8)Neu5Gc(a2-3)Gal(b1-4)GlcNAc(b1-3)Gal(b1-4)GlcNAc
Outline: as §1

[31] = target: Neu5Gc(a2-8)Neu5Gc(a2-6)Gal(b1-4)GlcNAc
Outline: as §1

[32] = target: Neu5Gc(b2-6)Gal(b1-4)GlcNAc
Outline: as §1

B1: CVN-E41G (protein)
chain: MHHHHHHENLYFQSGNFSQACYNSAIQGSVLTSTCIRTNGGYNTSSIDLNSVIANVDGSLKWQGSNFIETCRNTQLAGSSELAAECKTRAQQFVSTKINLDDHIAAIDGTLKYE
In the case of B1, the “glycan array binding signal (z-score)” value [1] is reported as -0.136, the “glycan array binding signal (z-score)” value [2] is reported as -0.195 and the “glycan array binding signal (z-score)” value [3] is reported as -0.161. The “glycan array binding signal (z-score)” value [4] was 0.292, the “glycan array binding signal (z-score)” value [5] was -0.193 and the “glycan array binding signal (z-score)” value [6] was -0.207. The “glycan array binding signal (z-score)” value [7] was -0.211, the “glycan array binding signal (z-score)” value [8] was -0.23 and the “glycan array binding signal (z-score)” value [9] was -0.229. The “glycan array binding signal (z-score)” value [10] was -0.226, the “glycan array binding signal (z-score)” value [11] was -0.232 and the “glycan array binding signal (z-score)” value [12] was -0.211. The “glycan array binding signal (z-score)” value [13] was -0.209, the “glycan array binding signal (z-score)” value [14] was -0.228 and the “glycan array binding signal (z-score)” value [15] was -0.245. The “glycan array binding signal (z-score)” value [16] was -0.24, the “glycan array binding signal (z-score)” value [17] was -0.163 and the “glycan array binding signal (z-score)” value [18] was -0.224. For the same binder, the “glycan array binding signal (z-score)” value [19] was -0.236, the “glycan array binding signal (z-score)” value [20] was -0.221 and the “glycan array binding signal (z-score)” value [21] was -0.199. The “glycan array binding signal (z-score)” value [22] was -0.01, the “glycan array binding signal (z-score)” value [23] was -0.223 and the “glycan array binding signal (z-score)” value [24] was -0.233. For the same binder, the “glycan array binding signal (z-score)” value [25] was -0.15, the “glycan array binding signal (z-score)” value [26] was 0.013 and the “glycan array binding signal (z-score)” value [27] was -0.18. The “glycan array binding signal (z-score)” value [28] was -0.216, the “glycan array binding signal (z-score)” value [29] was -0.226 and the “glycan array binding signal (z-score)” value [30] was -0.215. For the same binder, the “glycan array binding signal (z-score)” value [31] was -0.207 and the “glycan array binding signal (z-score)” value [32] was -0.228.
